Data taken from the supplement of paper PMC10477191.
± gives the standard deviation of the averaged measurements. Some of the results follow.

Tested on: Drosophila virilis
Assay: attraction index (odor vs solvent trap) (index (-1 to 1)); higher = more attraction to the odorant
Conditions: odor dose: 10^-2 dilution in mineral oil
Description: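 Two-choice trap assay (odor 10^-2 in mineral oil vs solvent, 20 flies, 24 h) run at test temperatures of 10-35 °C and 70% humidity, with flies reared at 18 or 25 °C. Attraction index = (O-C)/n; 10 replicates.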

[1] = test temperature 15 °C, rearing temperature 18 °C
[2] = test temperature 15 °C, rearing temperature 25 °C
[3] = test temperature 20 °C, rearing temperature 18 °C
[4] = test temperature 20 °C, rearing temperature 25 °C
[5] = test temperature 25 °C, rearing temperature 18 °C
[6] = test temperature 25 °C, rearing temperature 25 °C
[7] = test temperature 30 °C, rearing temperature 18 °C
[8] = test temperature 30 °C, rearing temperature 25 °C

SMILES | attraction index [1] | attraction index [2] | attraction index [3] | attraction index [4] | attraction index [5] | attraction index [6] | attraction index [7] | attraction index [8]
COC(=O)c1ccccc1O [methyl salicylate] | -0.039 ± 0.51 | -0.203 ± 0.41 | 0.0144 ± 0.42 | 0.0178 ± 0.38 | -0.0474 ± 0.18 | 0.229 ± 0.36 | 0.0526 ± 0.44 | 0.139 ± 0.37
COc1ccccc1O [guaiacol] | -0.474 ± 0.37 | -0.695 ± 0.22 | -0.311 ± 0.43 | -0.183 ± 0.47 | -0.622 ± 0.29 | -0.622 ± 0.22 | -0.427 ± 0.31 | -0.677 ± 0.3
CC(C)OC(=O)c1ccccc1 [isopropyl benzoate] | -0.153 ± 0.58 |  | -0.0903 ± 0.3 |  | -0.205 ± 0.33 |  | 0.0101 ± 0.29 | 
